Laboratory results: PubChem BioAssay AID493208 (National Center for Advancing Translational Sciences (NCATS), 2011)
The campaign covered roughly 44,000 compounds. About 340 (0.77%) were called active. Roughly 5% stayed inconclusive and do not appear here. Calls come from the whole dose curve; as a rule, active = well fitted inhibition curve with a large enough effect; inconclusive = small, poorly fitted or top-dose-only effect; inactive = flat fitted curve, though single readings scatter. This is one part of the list.

Experiment: Acumen qHTS Assay for Inhibitors of the mTORC1 Signaling Pathway in MEF (Tsc2-/-, p53-/-) Cells: Sytravon;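 note: plate controls were DMSO for no effect and rapamycin for full effect; nearly all actives have a fitted effect of over 50% in size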
Conditions: phospho-rpS6 immunofluorescence/PI, 24 h; series mostly up to 38.3 µM; activity change, negative = inhibition: at the top concentration
In short: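 Plate MEFs (Tsc2-/-, p53-/-, empty vector) in DMEM/10% FBS; after 24 h add compound, incubate 24 h at 37 degree Celsius; fix in PFA/TX-100, block, stain phospho-rpS6 and 10 uM PI; scan at 488 nm; report % positive cells.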

Activity change, negative = inhibition, inactive:
CCOC(=O)c1c(NC(=O)COc2cccc(C)c2C)sc2c1CCC(CC)C2 (stereo not given) -0.755%
Cn1c(=O)oc2cc(S(=O)(=O)N3CCC(C(=O)N4CCN(c5ccccc5F)CC4)CC3)ccc21 -0.552%
COc1cc(Cl)c(C)cc1NC(=O)CC(c1ccc(F)cc1)N1Cc2ccccc2C1=O (stereo not given) -1.01%
Cc1ccc(CCNC(=O)c2c(C)oc3ncn(CC(C)C)c(=O)c23)cc1 -8.39%
CC(C)(C)OC(=O)N1CCC(c2c(C(=O)NCCc3ccccc3)cnn2-c2ccc(F)cc2F)CC1 3.54%
COc1ccc(-c2c(C)c3ccc(O)c(CN4CCN(CCO)CC4)c3oc2=O)cc1OC -4.5%
O=C(NCc1cccc(F)c1)c1ccc(NC(=O)c2nsc3ccccc23)cc1 2.77%
CC(C)(C)c1ccc(C(=O)Nc2onc3c2CCCC3)cc1 1.18%
COc1ccc(OC)c(S(=O)(=O)Nc2cccc(-c3ccc(N4CCCCC4)nn3)c2)c1 -0.777%
Cc1ccc(C)c(N2CCN(C(=O)CSCc3ccccc3Cl)CC2)c1 -9.49%
COc1cccc(NC(=O)CC2Nc3cc(C)c(C)cc3NC2=O)c1 (stereo not given) -12.4%
Cc1cccc(NC(=O)CCS(=O)(=O)c2cc(Br)cc3c2N(C(=O)C2CC2)CC3)c1 -6.29%
Cc1ccc(CNC(=O)CC2Oc3ccc(Cl)cc3NC2=O)cc1 (stereo not given) 2.96%
CC(C)(C)c1ccc(C(=O)NCC(c2ccc(Cl)cc2)N2CCOCC2)cc1 (stereo not given) -6.42%
CCOc1ccc(NS(=O)(=O)c2ccc3c4c(cccc24)C(=O)N3)cc1 -4.13%
Cc1ccc(CN(Cc2ccco2)C(=O)COc2ccc(C)c(C)c2)cc1 -12.2%
CCc1ccc(S(=O)(=O)Nc2cccc(-c3ccc(N4CCOCC4)nn3)c2)cc1 -6.14%
CC(=O)c1cccc(NC(=O)CSc2nc3ccccc3nc2Cc2ccc(F)cc2)c1 0.408%
CC(=O)Nc1ccccc1-c1nc2ccccc2n(CC(=O)Nc2cccc(C(F)(F)F)c2)c1=O -15%
COc1ccc(/C=C/C(=O)Nc2nc(-c3cccs3)ns2)cc1OC -9.36%
Cc1ccc(CO)cc1Nc1ncnc2onc(-c3ccc(F)cc3)c12 2.88%
CCS(=O)(=O)N1CC(=O)N(c2ccc(Cl)cc2)C(C)(C(=O)NC2CCCCC2)C1 (stereo not given) -6.66%
CCOc1cccc2cc(S(=O)(=O)c3ccccc3F)c(=O)oc12 1.53%
Cc1ccc(CNC(=O)c2ccc3nc(SCc4ccc(F)cc4)[nH]c3c2)cc1 0%
CC1=C(c2ccc(C(C)C)cc2)S(=O)(=O)N=C1N1CCC(C(=O)NCCc2ccco2)CC1 -5.61%
COc1cccc(-c2nc(SCC(=O)NC3CCCC3)c(-c3ccc(C)cc3)[nH]2)c1 -15.3%
CCN(CC)C(=O)CSc1nc(-c2ccc(C)cc2)nc2c1Cc1c(CO)cnc(C)c1O2 -0.561%
COc1ccc(N2CC(NC(=O)c3ccc(S(=O)(=O)N4CCCCC4)cc3)CC2=O)cc1 (stereo not given) -3.23%
Cc1ccc(C(=O)Nc2c(C)nc3ccccn3c2=O)cc1C -27.3%
CCc1cccc(NC(=O)C(Cc2ccccc2)n2cccc2)c1 (stereo not given) -3.74%
CCOc1ccc(CNC(=O)c2ccc3c(c2)nc2n3CCOC2)cc1OC -19%
CC1=C(C(=O)Nc2ccc(F)cc2F)C2(CCN(C(C)C)CC2)OC1=O -0.896%
CCc1ccc(NC(=O)CN(c2cc(C)cc(C)c2)S(=O)(=O)c2c(C)[nH]c(=O)[nH]c2=O)cc1 0.244%
CCC1Oc2ccc(Cl)cc2N(CC(=O)NCCc2ccc(Cl)cc2)C1=O (stereo not given) -13.6%
CCCN1Cc2cccc(C(=O)Nc3cccc(C(=O)OCC)c3)c2C1=O -13.8%
CCc1cccc(C)c1NC(=O)Cn1nc(C)c2nn(-c3ccc(Cl)cc3)c(C)c2c1=O 0%
COc1ccc(/C=C/C(=O)Nc2ccc3nc(N4CCC(C)CC4)cc(C)c3c2)cc1 -9.92%
COCCNc1nc(NCc2cccc(Cl)c2)c2cnn(C)c2n1 11.4%
COc1ccc2c(c1)cc1c(=O)n(CC(=O)NC3CC3)nc(C)n12 0.318%
CCN(c1ccccc1)S(=O)(=O)c1c(-c2ccc(C)cc2)csc1C(=O)OC -5.42%
COc1ccccc1C(=O)Nc1ccc2oc(-c3cccc4c(Br)cccc34)nc2c1 1.61%
O=[N+]([O-])c1cc(-c2nc(-c3ccccc3)no2)ccc1NC1CCCCC1 1.96%
O=C(Cc1csc2nc(-c3ccc(F)cc3)cn12)NCc1ccccc1 -3.78%
C=Cc1ccc(Cn2c(C)c(CNCc3ccccc3C)c(C(=O)O)c2C)cc1 -7.48%
COc1ccccc1CNC(=O)CCn1c(=O)c2cccn2c2cccnc21 2.77%
Cc1ccc(NC(=O)c2ccc3c(O)c(S(=O)(=O)c4ccccc4)c(=O)[nH]c3c2)cc1Cl -3.75%
O=C(Nc1nnc(S(=O)(=O)N2CCCCC2)s1)c1ccccc1Br 6.87%
Cc1ccc(-c2nnc(Nc3ccc(C(=O)N(C)C)cc3)c3ccccc23)cc1S(=O)(=O)N(C)C 1.54%
CCN(C(=O)CN1C(=O)COc2ccc(S(=O)(=O)N3CCOCC3)cc21)c1ccc(OC)cc1 -1.65%
CC(C)(C)CC(=O)NCC(c1ccc2c(c1)OCO2)N1CCOCC1 (stereo not given) -0.0343%
O=C(Nc1cccc(F)c1)c1ccc2c(c1)N(Cc1ccccc1)C(=O)c1ccccc1S2(=O)=O -0.479%
O=C(COc1ccc(Cl)cc1)OCc1cc(=O)n2nc(C3CC3)sc2n1 -7.84%
COc1ccc(C(=O)NCC(c2ccc(N(C)C)cc2)N2CCc3ccccc32)cc1OC (stereo not given) 9.06%
COC(=O)c1ccccc1NC(=O)C1CCN(C(=O)N2CC(C)Oc3ccccc32)CC1 (stereo not given) 3.18%
Cc1cccc(NC(c2ccccc2F)c2ccc3ccc(C)nc3c2O)n1 (stereo not given) -7.83%
COc1ccc(-c2nc3ccccc3s2)cc1NC(=O)c1ccc(F)cc1 -0.929%
Cc1cccc(C(C)C)c1NC(=O)c1ccc2c(c1)CCN2S(C)(=O)=O -7.38%
Cc1nn2c(=O)cc(COC(=O)c3cccc(NC(=O)c4ccc(F)cc4)c3)nc2s1 10.8%
Cc1ccc(Cl)cc1NC(=O)Cn1c(=O)n(C(C)C)c(=O)c2oc3ccccc3c21 2.33%
CCn1c(CN2CCC(C)CC2)nc2cc(NC(=O)c3ccc([N+](=O)[O-])cc3)ccc21 2.11%
Cc1ccc(-n2nc(-c3ccccc3)c3cnc4cc5c(cc4c32)OCO5)cc1C 0.182%
O=C(O)CCc1ccc(-c2ccccc2)n1-c1ccc(C(=O)O)cc1 -0.0177%
CC(=O)Nc1cccc(NC(=O)CSc2ccc(-c3sc(-c4ccccc4)nc3C)nn2)c1 -21.5%
CCOc1ccc(S(=O)(=O)N2CCC(c3ccncc3)CC2)cc1 -13.3%
COc1cccc(NC(=O)c2oc3ccc(S(=O)(=O)N4CCCCCC4)cc3c2C)c1 3.45%
COC(=O)c1ccccc1NC(=O)c1nn(-c2ccc(OC)cc2)c(=O)c2c1c1ccccc1n2C -9.55%
COc1cccc(NC(=O)C2CCN(S(=O)(=O)c3ccc4[nH]c5c(c4c3)CCCCC5)CC2)c1 2.58%
CCC(C)NC(=O)c1c(C)oc2nc(C)nc(N3CCOCC3)c12 (stereo not given) -9.66%
Cc1ccc(NC(=O)c2ccc3snnc3c2)cc1C -0.518%
CCOC(=O)c1ccc(NC(=O)Cn2c3ncccc3c(=O)n2-c2ccc(C)c(C)c2)cc1 7.1%
Cc1cc(C)n(-c2nc(C)c(C)c(=O)n2CC(=O)Nc2cccc([N+](=O)[O-])c2)n1 -0.954%
COc1ccc(-c2cc(C(=O)NCCc3ccc(OC)c(OC)c3)c3c(-c4ccc(F)cc4)[nH]nc3n2)cc1 -6.15%
CC(=O)c1ccc(NC(=O)CC2Oc3ccc(C)cc3NC2=O)cc1 (stereo not given) 2.65%
CCOC(=O)Cc1c(C(=O)OCC)nnc2c(-c3ccccc3)c(C)nn12 1.47%
COCCNc1oc(-c2ccc(OC)cc2)nc1C#N 0.558%
CCOC(=O)c1cccc(NC(=O)N2CC=C(c3c[nH]c4ccccc34)CC2)c1 -8.86%
COc1ccc(OC)c(NC(=O)N2CC3CCCN3c3ccccc32)c1 (stereo not given) -3.44%
Cc1cc(Nc2ccc(Br)c(C)c2)n2nc(-c3ccco3)nc2n1 13.2%
COc1cccc(N2CCN(c3ncnc4c3c(-c3ccccc3)cn4-c3cccc(C(F)(F)F)c3)CC2)c1 13.2%
CCN(CC)C(=O)Cn1c(=O)n(CCc2ccccc2)c(=O)c2ccccc21 -0.217%
CCCNC(=O)N1[C@H](c2cccs2)[C@@H](C)C(=O)[C@@H](C)[C@@H]1c1cccs1 1.29%
COc1ccc(S(=O)(=O)NCC(c2ccc(N(C)C)cc2)N2CCc3ccccc32)cc1F (stereo not given) -15.9%
CCOC(=O)c1ccccc1NC(=O)COC(=O)CC(C)(C)CC1=NS(=O)(=O)c2ccccc2N1 2.28%
Cc1cc(C)n2nc(CNS(=O)(=O)c3ccccc3)nc2n1 -4.07%
CCOc1ccc(N(CC)S(=O)(=O)N2CCCC(C(=O)Nc3ccc(OC)c(Cl)c3)C2)cc1 (stereo not given) -19.7%
Cc1cccc(NC(=O)CN2C(=O)CSc3ccc(S(=O)(=O)N4CCCC4)cc32)c1C -1.59%
COC(=O)CC(=O)CSc1nc2cc(C(=O)NCC(C)C)ccc2c(=O)n1CCc1ccccc1 0%
O=C(Nc1ccccc1C(F)(F)F)N1CC=C(c2c[nH]c3ccccc23)CC1 -21.2%
COc1ccc(-c2cc3nc(C)c(CCC(=O)NC(C)c4ccccc4)c(C)n3n2)c(OC)c1 (stereo not given) 5.21%
COc1ccc(-c2onc(C)c2C)cc1S(=O)(=O)N1CCN(c2cc(C)ccc2C)CC1 1.28%
Cc1c(Cl)ccc2sc(N3CCN(C(=O)C4CC4)CC3)nc12 0.877%
Cc1nn(C(=O)c2cccc([N+](=O)[O-])c2C)c(C)c1S(=O)(=O)N1CCCCCC1 -3.14%
Cc1cccc(NC(=O)N2CCC(CN3CCCCCC3)CC2)c1C 1.2%
CC1CCN(S(=O)(=O)c2ccc3c(c2)CCN3C(=O)Nc2ccc(Br)cc2F)CC1 -5.45%
CCc1ccccc1NC(=O)Cn1nc(N2CCN(c3ccccc3OC)CC2)ccc1=O 4.8%
